Results reported in PubChem BioAssay AID662 (National Center for Advancing Translational Sciences (NCATS), 2007).
About 1,800 (2.5%) of roughly 71,000 compounds were called active. The inconclusive results got no clear call from the source; some entries with a clear call stand among them for comparison. Calls come from the whole dose curve; as a rule, active = well fitted activation curve with a large enough effect in the signal ratio, with a control signal flat (not every such curve was filed as active); inconclusive = small, poorly fitted or top-dose-only effect, or effect the other way, or a change in a side signal; inactive = flat fitted curve, though single readings scatter; the % refers to the signal ratio. Where the call is inconclusive, the potency comes from a doubtful curve fit.

Test: Cell signaling CRE-BLA (Fsk stim); for activity change, negative = inhibition: % of control where 0% means no effect
Conditions: CHO CRE-bla reporter (cAMP response element driving beta-lactamase), forskolin EC10, beta-lactamase ratio; activity change, negative = inhibition: at 38.2 µM (top of the series) unless noted
Procedure, shortened: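 Using CellSensor CRE-bla CHO cells in Opti-MEM with 0.5% dialyzed FBS, compounds were titrated with EC10 NKH 477 for 3 h at 37 °C. CCF4 ratio (460/530 nm) gave %Activity; AC50 derived.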
Potency is the fitted concentration of half-maximal effect; tags give direction and shape of the fitted curve.

Structure (SMILES)	Potency	activity change, negative = inhibition
COc1ccc(-c2nc(C#N)c(NCc3ccc(F)cc3)o2)cc1OC	active: 3.98 µM	
CCOc1ccc(-c2cc3nc(C4CCN(C(=O)OC(C)(C)C)CC4)c(C(=O)O)cn3n2)cc1	active: 12.6 µM	
CCOC(=O)C1CCN(C(=O)N2CCOCC2)CC1		inconclusive: 1.56%
O=C(NCCN1CCOCC1)c1ccc(CS(=O)(=O)Cc2ccccc2F)o1		inconclusive: 5.44%
CCOc1ccc(-c2noc(CCC(N)=O)n2)cc1OCC	inconclusive: 3.98 µM [rising, partial curve]	
Clc1ccc(CS[C@@H](Cn2ccnc2)c2ccc(Cl)cc2Cl)cc1	inconclusive: 12.6 µM [rising, single point]	
Cc1ccc(S(=O)(=O)N2CCN(C(=O)CSc3nc4ccccc4c(=O)[nH]3)CC2)c(C)c1	inconclusive: 25.1 µM [rising, single point]	
CN(C)S(=O)(=O)c1cccc(-c2cn3ccccc3n2)c1	inconclusive: 10 µM [rising, single point]	
CC(=O)CC1(O)C(=O)N(CN2CCN(c3ccccc3)CC2)c2ccccc21 (stereo not drawn)	inconclusive: 0.02 µM [rising, single point]	
O=c1ccccn1Cc1ccccc1F		inactive
N#CC1=C2SCC(O)(c3ccccc3)N2C(=O)CC1c1cccs1 (stereo not drawn)	inconclusive: 12.6 µM [rising, single point]	
Cc1nnc(SCc2ccccc2C#N)n1-c1ccccc1		inactive
C=CCSc1ncccc1C(=O)O		inactive
Cc1c(OCC(=O)OC(C)(C)C)ccc2c3c(c(=O)oc12)CCC3		inactive
CC(=O)C1=C(C)Nc2ncnn2C1c1ccc(Cl)cc1Cl (stereo not drawn)		inactive
CCOC(=O)c1cc(C)n(CCc2ccccc2)c1C		inactive
Cc1cc(Nc2ccccc2F)n2ncnc2n1	inconclusive: 12.6 µM [rising, single point]	
O=C(O)CCC(=O)N(Cc1cccnc1)Cc1cccc(F)c1		inactive
COc1ccc(NC(=O)C2CCN(C(=O)NC3CCCCC3)CC2)c(OC)c1		inactive
CCOC(=O)C1C2C=CC3(CN(C4CCCC4)C(=O)C13)O2 (stereo not drawn)		inactive
CC(=O)c1nn(-c2cccc(Cl)c2)cc1C(=O)c1ccco1		inactive

Structure (SMILES)	Potency	activity change, negative = inhibition
COc1ccccc1NC(=O)c1c(NC(=O)c2ccco2)sc2c1CCC2		inconclusive: 22.5%
C=CCNc1nc2c(c(=O)[nH]c(=O)n2C)n1CCCCC		inconclusive: 28.2%
Cc1cc(C(C)(C)C)cc(CNC2CCCCC2)c1O		inactive: -2.57% [at 7.6 µM]
CCc1cccc(C)c1NC(=O)C1C2CCC(O2)C1C(=O)O (stereo not drawn)		inconclusive: 2.85%
COC(=O)N1CC=CC1(C)C(=O)O (stereo not drawn)		inactive
CN1CCN(C(=O)c2cccc(COc3cc(Cl)ccc3Cl)c2)CC1	inconclusive: 12.6 µM [rising, single point]	
CCc1ccccc1N(CC(=O)N1CCN(c2ccccc2F)CC1)S(C)(=O)=O	inconclusive: 0.316 µM [falling, partial curve]	
CC1(C)CC(=O)c2c(-c3cccs3)n[nH]c2C1		inconclusive: 15.6%
CCOc1ccc(N2C(=O)CC(Sc3nc(C)cc(C)n3)C2=O)cc1 (stereo not drawn)		inconclusive: -15.2% [at 7.6 µM]
CN(Cc1ccco1)c1cc(-c2ccccc2Cl)ncn1		inconclusive: 12.6%
Cc1nnc(C)n1/N=C/c1ccc2c(c1)OCCO2	inconclusive: 5.01 µM [falling, single point]	
Cn1c(=O)c2c(nc(CN3CCN(Cc4ccccc4)CC3)n2Cc2ccc(F)cc2)n(C)c1=O		inconclusive: 3.52%
O=C(CCC(=O)N1CCc2ccccc21)N1CCc2ccccc21		inconclusive: -1.09%
COc1ccc(-n2c(=O)c(-c3ccc(F)c(F)c3)nc3cncnc32)cc1		inactive
CC1CCCCN1C(=O)Cn1c(=O)n(C2CCCCC2)c(=O)c2ccccc21 (stereo not drawn)		inconclusive: 8.72%
CC(=O)c1nnn(-c2nc(N)nc(N(c3ccccc3)c3ccccc3)n2)c1C		inconclusive: 72.8%
CCOC(=O)N1CCN(C(=O)c2ccc(S(=O)(=O)c3ccc(C)cc3)c(NC(C)=O)c2)CC1	inconclusive: 0.00794 µM [falling, full curve, poor fit]	
Cc1cc(Nc2ccc(C)c(C)c2)n2nc(C)nc2n1	inconclusive: 6.31 µM [rising, partial curve]	
CCOC(=O)Cn1c(=NC(=O)CSC(C)=O)sc2ccccc21		inconclusive: -15.1%
COc1ncc2nc(-c3ccc(Cl)cc3)c(=O)n(Cc3cccs3)c2n1	active: 12.6 µM	
CCCN(CCC)C1CC(=O)N(Cc2ccccc2)C1=O (stereo not drawn)		inconclusive: -13.6%

Structure (SMILES)	Potency	activity change, negative = inhibition
Cc1ccc(Cn2ncc3c(N4CCCC4)ncnc32)cc1	inconclusive: 5.01 µM [rising, partial curve]	
CCOC(=O)N1CCN(C(=O)c2ccc3c(=O)n(Cc4ccc(OC)cc4)c(=S)[nH]c3c2)CC1		inconclusive: 14.4%
COc1ccc(OC)c(-c2cc(C(=O)Nc3c(C)nn(Cc4ccc(Cl)cc4)c3C)no2)c1	active: 3.98 µM	
O=C1CCCC2=C1C(c1cccc(Br)c1)n1nc(-c3ccco3)nc1N2 (stereo not drawn)	inconclusive: 20 µM [rising, single point]	
O=C(Cc1ccc(-n2c(=O)[nH]c3ccccc3c2=O)cc1)N1CCN(c2ccccc2)CC1		inconclusive: -17%
Cc1nc(NC(=O)c2ccccc2)sc1-c1csc(NCc2ccco2)n1		inconclusive: -15.8%
Cn1c2ccc(Cl)cc2c2nc3ccccc3nc21	inconclusive: 10 µM [rising, partial curve]	
O=C(COc1ccc(Cl)cc1Cl)Nc1ccc(Cl)cn1		inactive
Cn1ncc2c(NCCc3ccccc3)nc(Cl)nc21	inconclusive: 3.16 µM [rising, single point]	
C=CCn1cc(C(=O)NCCCOCC)c(=O)c2cc(S(=O)(=O)N(CC)CC)ccc21		inconclusive: 13.8%
Cc1cc(C)c2nc(N3CCCC(C(=O)N4CCC(C(N)=O)CC4)C3)sc2c1 (stereo not drawn)		inconclusive: 16.7%
COCCn1c(=O)c(-c2cccc(Cl)c2)nc2cncnc21	inconclusive: 12.6 µM [rising, single point]	
COC(=O)c1ccc2c(=O)sc(N3CCC(C(N)=O)CC3)nc2c1		inconclusive: -8.15%
O=C(Cc1cn2ccsc2n1)NCc1ccccc1		inactive
Cc1ccc(CNC(=O)c2cc3c(=O)n4cccc(C)c4nc3n(CC3CCCO3)c2=N)cc1 (stereo not drawn)	inconclusive: 15.8 µM [rising, single point]	
c1cncc(Nc2nc(-c3ccncc3)cs2)c1		inconclusive: 2.18%
COc1ccc(-c2nc(CSCC(=O)N3CCN(c4cccc(C)c4)C(C)C3)c(C)o2)cc1OC (stereo not drawn)		inconclusive: -21.6%
CC(=O)Nc1ccc(C2NC(=O)c3ccccc3O2)cc1 (stereo not drawn)		inconclusive: -19.2%
COc1cc(C(=O)Nc2ccc(N(C)C)cc2)cc(OC)c1OC	inconclusive: 12.6 µM [rising, partial curve]	
CCn1c(COc2cccc(OC)c2)nnc1SCC(=O)Nc1cccc(OC)c1		inconclusive: -21.4%
CCN(CC)CCCNc1cc2n(c(=O)n1)CCc1cc(OC)c(OC)cc1-2	inconclusive: 10 µM [rising, single point]	

Structure (SMILES)	Potency	activity change, negative = inhibition
COc1cc(C(=O)Nc2ccc(-n3cnnn3)c(C)c2)cc(OC)c1OC	inconclusive: 10 µM [rising, partial curve]	
O=C(NC1CCCCC1)c1sc(=S)n2c1[nH]c(=O)c1ccccc12		inconclusive: 5.1%
COc1ccc(C2c3c(-c4cc(Cl)c(C)cc4O)n[nH]c3C(=O)N2Cc2cccnc2)cc1OC (stereo not drawn)	active: 3.16 µM	
O=C1CSC(=O)N1CCOCCN1C(=O)CSC1=O	inconclusive: 5.01 µM [rising, single point]	
CCCn1c(=O)n(C)c(=O)c2c(SCc3cc(C(C)=O)ccc3OCC)nc(C3CC3)nc21	active: 2 µM	
COc1ccccc1N1C(=O)c2ccccc2NC1c1ccncc1 (stereo not drawn)		inactive
CCOc1ccc(-c2cc(CCCC(=O)NCc3cccnc3)no2)cc1		inactive
CN1/C(=C\C(=O)COc2ccc3c(c2)OCO3)C(C)(C)c2ccccc21		inactive
NC(=O)CCn1nc(-c2ccccc2)c2ccccc2c1=O		inconclusive: 18.8%
Cc1ccc(-c2nnc3ccc(SCC(=O)Nc4cc(C)on4)nn23)cc1		inconclusive: 16.2%
Cc1cccc(OCc2nnc(SCC(=O)Nc3ccc(C)c(C)c3)o2)c1	inconclusive: 1 µM [falling, single point]	
Cc1ccc(OCC(=O)n2nc(C)cc2C)c(Br)c1		inconclusive: -27% [at 7.6 µM]
CCOc1ccccc1NC(=O)CC1Nc2cc(C)c(C)cc2NC1=O (stereo not drawn)	inconclusive: 15.8 µM [rising, partial curve]	
CCOC(=O)N1CCC(NC(=O)c2cnn3cccnc23)CC1		inactive
CC1C2CC(C(CN(C)C)/C2=N/O)C1(C)C (stereo not drawn)		inconclusive: 11.9% [at 7.6 µM]
COCc1c(C(=O)OCc2nc(N)nc(Nc3ccccc3C)n2)oc2ccccc12	inconclusive: 10 µM [rising, partial curve]	
Brc1cc2c(cc1Cn1c(-c3cncs3)nc3ccccc31)OCO2	active: 2 µM	
COC(=O)c1[nH]c2ccc(Cl)cc2c1NC(=O)CN1CCC(C(N)=O)CC1		inactive
O=C(c1cccnc1)N1CCN(C(=O)c2ccccc2F)CC1		inactive: -13.3% [at 7.6 µM]
COc1cccc(NC(=O)N2CCC(N3CCCCC3)CC2)c1	inconclusive: 5.01 µM [rising, single point]	
